# Assay results published in PubChem BioAssay AID1347073 (National Center for Advancing Translational Sciences (NCATS), 2019).
# Hit rate of the full screen: of about 45,000 compounds, about 200 (0.44%) were called active. Not shown: some 7% with an inconclusive outcome. Calls follow the shape of the dose curve; as a rule, active = well fitted activation curve with a large enough effect; inconclusive = small, poorly fitted or top-dose-only effect; inactive = no such curve, though single readings can be large or run the other way. The list shows a part of the results.
# Experiment: qHTS of TDP-43 Inhibitors: NCGC Sytravon Library Screen; also: 0% is about no effect; nearly all actives have a fitted effect of over 55% in size
# Settings: yeast TDP-43 toxicity rescue, BacTiter-Glo growth, 24 h; series mostly up to 46.1 µM; growth rescue (activation): at the top concentration
# Outline: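 TDP-43-expressing yeast, pregrown in raffinose, seeded at OD600 0.02 in galactose medium with compound for 24 hr at 30 deg C. Growth read by BacTiter-Glo luminescence, so rescue of toxicity appears as activation.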
row,Structure (SMILES),growth rescue (activation)
1,O=S(=O)(c1ccc(C2CCCCC2)cc1)N1CCOCC1,inactive: 15.1%
2,O=C(NCc1ccc(F)cc1)C1CCCN(S(=O)(=O)c2ccc(Br)s2)C1 (centres undefined),inactive: 11.8%
3,CN(CC(=O)NC1CCCc2ccccc21)S(=O)(=O)c1cccs1 (centres undefined),inactive: 23.5%
4,O=C1CC(NNc2nc3ccccc3s2)C(=O)N1c1ccc(F)cc1 (centres undefined),inactive: -14.5%
5,COc1ccc(NC(=O)CNC(c2ccccc2)c2ccccc2)cc1Cl,inactive: 9.68%
6,O=C(/C=C/c1cccc(Br)c1)Nc1nn[nH]n1,inactive: 15.1%
7,CCCCC(CC)CNC(=O)C(=O)C1C(=O)Nc2ccccc21 (centres undefined),inactive: -1.89%
8,CCC(=O)N(Cc1cc2c(C)ccc(C)c2[nH]c1=O)C1CCCCC1,inactive: 4.56%
9,Cc1nc(Nc2cccc(O)c2)c2c3c(sc2n1)CCC3,inactive: 26.2%
10,O=C(NCCc1ccccc1)NC(Cc1ccccc1)C(=O)O (centres undefined),inactive: 2.71%
11,CC1CCc2sc(C(=O)OCC(=O)NCc3ccccc3)cc2C1 (centres undefined),inactive: 18.5%
12,C=CCn1c(SCC(=O)NC(=O)c2cccc([N+](=O)[O-])c2)nnc1-c1ccccc1,inactive: -13.2%
13,COc1ccc(C2=NO[C@@H]3[C@@H]4C[C@@H]([C@H]5C(=O)N(C)C(=O)[C@@H]45)[C@H]23)c(OC)c1,inactive: 0.57%
14,Cc1c(NC(=O)[C@@H](NC(=O)c2ccc(Cl)c([N+](=O)[O-])c2)C(C)C)c(=O)n(-c2ccccc2)n1C,inactive: 2.78%
15,Cc1ccc(NC(=O)CN(C)Cc2cccs2)cc1Cl,inactive: -9.03%
16,O=C(COC(=O)c1ccc(O)cc1)Nc1nccs1,inactive: 7.45%
17,Fc1ccc(/C=N/NC(=S)NCCc2ccccc2)cc1F,inactive: 11.8%
18,O=C(Nc1ccc2c(c1)CCC2)c1ncoc1-c1ccccc1F,inactive: -16.9%
19,COc1cc(S(=O)(=O)NC2CC(C)(C)NC(C)(C)C2)c(OC)cc1Cl,inactive: -16%
20,Cc1ccsc1/C=N/NC(=O)c1cccc(S(=O)(=O)Nc2ccccc2Cl)c1,inactive: 5.44%
21,CC(=O)c1cccc(NC(=O)CCNC(=O)c2cccc(C)c2)c1,inactive: 0.249%
22,CC(C(=O)Nc1ccc(Cl)cc1Cl)N1C(=O)NC2(CCCC2)C1=O (centres undefined),inactive: -1.04%
23,Cn1cc(/C=N/NC(N)=S)c2ccccc21,inactive: 20.2%
24,CC(C)c1nc2cc(Cl)ccc2n(Cc2ccccc2)c1=O,inactive: 24.1%
25,COc1cc(/C=C2\SC(=O)N(CC(=O)Nc3ccccc3F)C2=O)cc(Cl)c1O,inactive: 0.294%
26,CCOC(=O)C(=O)C1=C(N2CCOCC2)/C(=C\c2ccc(F)cc2)CC1,inactive: 2.88%
27,Cc1ccccc1N1CCN(C2CCCN(C(=O)c3ocnc3C)C2)CC1 (centres undefined),inactive: 2.13%

row,Structure (SMILES),growth rescue (activation)
1,O=C(NC(=S)NNS(=O)(=O)c1ccccc1)c1cccnc1,inactive: -27.6%
2,COc1ccc(C(=O)C2CCCN(Cc3cccn3-c3ccccn3)C2)c(OC)c1 (centres undefined),inactive: -0.553%
3,CC1C(=O)Nc2ccccc2N1C(=O)C1CC1 (centres undefined),inactive: 16%
4,O=C(N/N=C/C=C/c1ccccc1)c1ccccn1,inactive: 20.5%
5,O=C(c1ccccc1)N1CCN(C(=O)c2ccc([N+](=O)[O-])cc2)CC1,inactive: 2.23%
6,COC(=O)c1ccc(CNC(=O)N2CCN(S(=O)(=O)c3ccc(C)cc3)CC2)cc1,inactive: 1.76%
7,Cc1ccc(C)c(N(CC(=O)NC2CCCC2)C(=O)CCCC(=O)Nc2ccccn2)c1,inactive: -8.08%
8,CCc1cccc(CC)c1-n1c(SCC(=O)c2c(N)n(C)c(=O)n(C)c2=O)nnc1-c1cccnc1,inactive: 10.8%
9,COc1cccc(OCC(=O)N(C)Cc2nc(-c3ccccc3)no2)c1,inactive: 2.79%
10,COc1ccc(NC(=O)c2cc(-c3cc(Cl)ccc3C)n[nH]2)c(OC)c1,inactive: 9.78%
11,Cc1ccc(Nc2c(-c3ccc(C)o3)nc3ncccn23)cc1,inactive: 5.5%
12,COc1ccc(OCCN2CCC(C(=O)NC(c3ccsc3)c3ccccc3C)CC2)cc1 (centres undefined),inactive: 7.49%
13,O=C(Nc1cccc(Oc2ccccc2)c1)C1Cc2c(-c3cccc(F)c3)ccnc2O1 (centres undefined),inactive: 19.9%
14,Cc1nc(Cc2nnc(SCC(=O)N3CC(=O)Nc4ccccc43)o2)cs1,inactive: 2.53%
15,O=C(Nc1ccc2c(c1)CN(Cc1ccc(CO)o1)CC2)c1ccc(C(F)(F)F)cc1,inactive: -13.6%
16,CS(=O)(=O)N1CCN(C(=O)c2ccncc2)CC1,inactive: 15.3%
17,Cc1ccc(NC(=O)c2cc(C)nn2-c2ccccc2)cc1,inactive: 28.3%
18,COC(=O)CN1C(=O)C(C)(C)Oc2ccc(C(=O)Nc3cccc(OC)c3)cc21,inactive: 13%
19,Cc1cc(C(=O)CSc2nnc(-c3ccco3)o2)c(C)n1-c1ccc2c(c1)OCCO2,inactive: 17%
20,CCN(C(=O)COC(=O)c1c(C)noc1C)C1CCS(=O)(=O)C1 (centres undefined),inactive: 7.62%
21,O=C(/C=N/NC(=O)c1ccccc1Br)c1ccccc1,inactive: 11.5%
22,CCOC(=O)C1CCN(C(=O)Nc2ccc3nc(-c4ccco4)c(-c4ccco4)nc3c2)CC1,inactive: 15.5%
23,CC1(C(=O)Nc2ccc3c(c2)OCO3)Cc2c(-c3ccccc3)ccnc2O1 (centres undefined),inactive: -4.57%
24,CN1CCN(CC(C)(C)NS(=O)(=O)c2ccccc2)CC1,inactive: 11.4%
25,CCCS(=O)(=O)NC(=O)C1(C)CCCN(C(=O)/C=C/c2ccccc2)C1 (centres undefined),inactive: -2.77%
26,O=C(Nc1ccc([N+](=O)[O-])cn1)C1CCCCC1,inactive: 20.1%
27,COc1cccc(Nc2nc(-c3cccs3)nc3ccccc23)c1,inactive: -23.6%
